“And” between values parts separate entries of the source, which are not always exact repeats. Equal values may be shown once.
T1: human GITR expressed on cells (human, UniProt Q9Y5U5 26-241)
T1 sequence: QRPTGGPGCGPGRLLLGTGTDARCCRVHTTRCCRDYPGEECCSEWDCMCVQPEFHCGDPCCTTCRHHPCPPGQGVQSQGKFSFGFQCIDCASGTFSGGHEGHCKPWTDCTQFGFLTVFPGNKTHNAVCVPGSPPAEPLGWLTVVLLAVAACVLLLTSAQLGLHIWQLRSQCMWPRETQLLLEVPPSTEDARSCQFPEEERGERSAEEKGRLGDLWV

T2: recombinant human GITR (human, UniProt Q9Y5U5 26-162)
T2 sequence: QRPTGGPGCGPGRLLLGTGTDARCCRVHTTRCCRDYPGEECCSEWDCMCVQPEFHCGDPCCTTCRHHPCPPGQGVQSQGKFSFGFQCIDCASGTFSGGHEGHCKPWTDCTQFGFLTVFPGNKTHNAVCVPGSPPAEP

B1: hexameric GITRL IgG1 FP comprising monomeric subunits of SEQ ID NO: 6 (Fc fusion)
chain: [human IgG1 Fc omitted here]GGGGSGGGGSGGGGSGGGGSGGGGSVSRLEEEMRKLQATVQELQKRLDRLEETVQAKGGGGQLETAKEPCMAKFGPLPSKWQMASSEPPCVNKVSDWKLEILQNGLYLIYGQVAPNANYNDVAPFEVRLYKNKDMIQTLTNKSKIQNVGGTYELHVGDTIDLIFNSEHQVLKDNTYWGIILLANPQFIS
modifications: biotinylated in the ELISA
notes: also called hexameric hGITRL IgG1 FP; hexameric GITRL FP
B2: hexameric GITRL IgG4P FP comprising monomeric subunits of SEQ ID NO: 40 (Fc fusion)
chain: [human IgG4 Fc with S228P (EU numbers) omitted here]GGGGSGGGGSGGGGSGGGGSGGGGSVSRLEEEMRKLQATVQELQKRLDRLEETVQAKGGGGQLETAKEPCMAKFGPLPSKWQMASSEPPCVNKVSDWKLEILQNGLYLIYGQVAPNANYNDVAPFEVRLYKNKDMIQTLTNKSKIQNVGGTYELHVGDTIDLIFNSEHQVLKDNTYWGIILLANPQFIS

What was measured:
[1] = target: T3, recombinant cynomolgus monkey GITR (cynomolgus monkey); test: KinExA, solution equilibrium
T3 construct: also called recombinant cynomolgous GITR; cynomolgus GITR

[2] = target: T1, human GITR expressed on cells; test: cell-based or functional assay
recombinant human GITR = target: T2, recombinant human GITR; test: KinExA, solution equilibrium at 25 C

Binder	Kd [1]	EC50, luminescence of Jurkat cells transfected with hGITR and an NFκB luciferase reporter [2]	EC50, proliferation of primary human T cells (thymidine incorporation), plate bound FP with anti-CD3 and anti-CD28 [2]	EC50, release of IFN-γ by primary human T cells, plate bound FP with anti-CD3 and anti-CD28 [2]	Kd (recombinant human GITR)
B1	107 nM	0.182 nM and ~0.18 nM	0.3 nM	0.6 nM	82 nM
B2	–	0.289 nM	0.5 nM	0.8 nM	–
